# Results from the supplement of paper PMC8728848.
# The other results are listed elsewhere or left out.
# B1: PILRa (Homo sapiens), Q9UKJ1 (protein)
# chain: MGRPLLLPLLPLLLPPAFLQPSGSTGSGPSYLYGVTQPKHLSASMGGSVEIPFSFYYPWELATAPDVRISWRRGHFHRQSFYSTRPPSIHKDYVNRLFLNWTEGQKSGFLRISNLQKQDQSVYFCRVELDTRSSGRQQWQSIEGTKLSITQAVTTTTQRPSSMTTTWRLSSTTTTTGLRVTQGKRRSDSWHISLETAVGVAVAVTVLGIMILGLICLLRWRRRKGQQRTKATTPAREPFQNTEEPYENIRNEGQNTDPKLNPKDDGIVYASLALSSSTSPRAPPSHRPLKSPQNETLYSVLKA
# Legend:
# Test in all cases: glycan array binding signal (z-score within array); higher = stronger binding
# Details in all cases: glycan notation: IUPAC condensed, linker removed
# Fuc(a1-2)[Gal(a1-3)]Gal = target: Fuc(a1-2)[Gal(a1-3)]Gal
# In short: (§1)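 The binding signal is a Z-score computed within each array. Data were drawn from 3228 arrays in the Consortium for Functional Glycomics database, restricted to those with a known protein sequence. Scores were averaged over arrays of the same protein sequence at different concentrations or buffers, and over linkers, and negative values can be taken as non-binding.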
# [1] = target: Fuc(a1-2)[Gal(a1-3)]Gal(b1-3)GlcNAc
# In short: as §1
# [2] = target: Fuc(a1-2)[Gal(a1-3)]Gal(b1-3)GlcNAc(b1-2)Man(a1-3)[Fuc(a1-2)[Gal(a1-3)]Gal(b1-3)GlcNAc(b1-2)Man(a1-6)]Man(b1-4)GlcNAc(b1-4)GlcNAc
# In short: as §1
# [3] = target: Fuc(a1-2)[Gal(a1-3)]Gal(b1-3)GlcNAc(b1-3)GalNAc
# In short: as §1
# [4] = target: Fuc(a1-2)[Gal(a1-3)]Gal(b1-4)Glc
# In short: as §1
# [5] = target: Fuc(a1-2)[Gal(a1-3)]Gal(b1-4)GlcNAc
# In short: as §1
# [6] = target: Fuc(a1-2)[Gal(a1-3)]Gal(b1-4)GlcNAc(b1-2)Man(a1-3)[Fuc(a1-2)[Gal(a1-3)]Gal(b1-4)GlcNAc(b1-2)Man(a1-6)]Man(b1-4)GlcNAc(b1-4)GlcNAc
# In short: as §1
# [7] = target: Fuc(a1-2)[Gal(a1-3)]Gal(b1-4)GlcNAc(b1-2)Man(a1-3)[Fuc(a1-2)[Gal(a1-3)]Gal(b1-4)GlcNAc(b1-2)Man(a1-6)]Man(b1-4)GlcNAc(b1-4)[Fuc(a1-6)]GlcNAc
# In short: as §1
# [8] = target: Fuc(a1-2)[Gal(a1-3)]Gal(b1-4)GlcNAc(b1-3)GalNAc
# In short: as §1
# [9] = target: Fuc(a1-2)[Gal(a1-3)]Gal(b1-4)[Fuc(a1-3)]Glc
# In short: as §1
# [10] = target: Fuc(a1-2)[Gal(a1-3)]Gal(b1-4)[Fuc(a1-3)]GlcNAc
# In short: as §1
# [11] = target: Fuc(a1-2)[Gal(a1-3)]Gal(b1-4)[Fuc(a1-3)]GlcNAc(b1-3)GalNAc
# In short: as §1
# [12] = target: Fuc(a1-2)[Gal(a1-4)]Gal(b1-4)GlcNAc
# In short: as §1
# [13] = target: Fuc(a1-2)[GalNAc(a1-3)]Gal
# In short: as §1
# [14] = target: Fuc(a1-2)[GalNAc(a1-3)]Gal(b1-3)GalNAc(a1-3)[Fuc(a1-2)]Gal(b1-4)GlcNAc
# In short: as §1
# [15] = target: Fuc(a1-2)[GalNAc(a1-3)]Gal(b1-3)GlcNAc
# In short: as §1
# [16] = target: Fuc(a1-2)[GalNAc(a1-3)]Gal(b1-3)GlcNAc(b1-2)Man(a1-3)[Fuc(a1-2)[GalNAc(a1-3)]Gal(b1-3)GlcNAc(b1-2)Man(a1-6)]Man(b1-4)GlcNAc(b1-4)GlcNAc
# In short: as §1
# [17] = target: Fuc(a1-2)[GalNAc(a1-3)]Gal(b1-3)GlcNAc(b1-3)GalNAc
# In short: as §1
# [18] = target: Fuc(a1-2)[GalNAc(a1-3)]Gal(b1-4)Glc
# In short: as §1
# [19] = target: Fuc(a1-2)[GalNAc(a1-3)]Gal(b1-4)GlcNAc
# In short: as §1
# [20] = target: Fuc(a1-2)[GalNAc(a1-3)]Gal(b1-4)GlcNAc(b1-2)Man(a1-3)[Fuc(a1-2)[GalNAc(a1-3)]Gal(b1-4)GlcNAc(b1-2)Man(a1-6)]Man(b1-4)GlcNAc(b1-4)GlcNAc
# In short: as §1
# [21] = target: Fuc(a1-2)[GalNAc(a1-3)]Gal(b1-4)GlcNAc(b1-3)Gal(b1-4)GlcNAc
# In short: as §1
# [22] = target: Fuc(a1-2)[GalNAc(a1-3)]Gal(b1-4)GlcNAc(b1-3)Gal(b1-4)GlcNAc(b1-3)Gal(b1-4)GlcNAc
# In short: as §1
# [23] = target: Fuc(a1-2)[GalNAc(a1-3)]Gal(b1-4)GlcNAc(b1-3)GalNAc
# In short: as §1
# [24] = target: Fuc(a1-2)[GalNAc(a1-3)]Gal(b1-4)[Fuc(a1-3)]GlcNAc
# In short: as §1
# [25] = target: Fuc(a1-2)[GalNAc(a1-3)]Gal(b1-4)[Fuc(a1-3)]GlcNAc(b1-3)GalNAc
# In short: as §1
# [26] = target: Fuc(a1-2)[GalNAc(a1-4)]Gal(b1-4)GlcNAc
# In short: as §1
# [27] = target: Fuc(a1-2)[GalNAc(b1-3)]Gal
# In short: as §1
# Fuc(a1-3)GlcNAc = target: Fuc(a1-3)GlcNAc
# In short: as §1
# [28] = target: Fuc(a1-3)[Gal(b1-4)]Glc6S
# In short: as §1
# [29] = target: Fuc(a1-3)[Gal(b1-4)]GlcNAc
# In short: as §1
# [30] = target: Fuc(a1-3)[Gal(b1-4)]GlcNAc(b1-2)Man(a1-3)[Fuc(a1-3)[Gal(b1-4)]GlcNAc(b1-2)Man(a1-6)]Man(b1-4)GlcNAc(b1-4)GlcNAc
# In short: as §1
# [31] = target: Fuc(a1-3)[Gal(b1-4)]GlcNAc(b1-2)Man(a1-3)[Fuc(a1-3)[Gal(b1-4)]GlcNAc(b1-2)Man(a1-6)]Man(b1-4)GlcNAc(b1-4)[Fuc(a1-6)]GlcNAc
# In short: as §1
# [32] = target: Fuc(a1-3)[Gal(b1-4)]GlcNAc(b1-2)Man(a1-6)[Gal(b1-4)GlcNAc(b1-2)Man(a1-3)]Man(b1-4)GlcNAc(b1-4)GlcNAc
# In short: as §1
# [33] = target: Fuc(a1-3)[Gal(b1-4)]GlcNAc(b1-3)Gal(b1-3)[Fuc(a1-4)]GlcNAc
# In short: as §1
# [34] = target: Fuc(a1-3)[Gal(b1-4)]GlcNAc(b1-3)GalNAc
# In short: as §1
# [35] = target: Fuc(a1-3)[Gal(b1-4)]GlcNAc(b1-4)Gal(b1-4)[Fuc(a1-3)]GlcNAc
# In short: as §1
# [36] = target: Fuc(a1-3)[Gal(b1-4)]GlcNAc(b1-4)Gal(b1-4)[Fuc(a1-3)]GlcNAc(b1-4)Gal(b1-4)[Fuc(a1-3)]GlcNAc
# In short: as §1
binder,measurement,setting,value
B1,glycan array binding signal (z-score),Fuc(a1-2)[Gal(a1-3)]Gal,0.018
same,glycan array binding signal (z-score),[1],-0.18
same,glycan array binding signal (z-score),[2],0.065
same,glycan array binding signal (z-score),[3],0.023
same,glycan array binding signal (z-score),[4],-0.132
same,glycan array binding signal (z-score),[5],-0.277
same,glycan array binding signal (z-score),[6],-0.305
same,glycan array binding signal (z-score),[7],-0.14
same,glycan array binding signal (z-score),[8],-0.193
same,glycan array binding signal (z-score),[9],-0.182
same,glycan array binding signal (z-score),[10],1.53
same,glycan array binding signal (z-score),[11],3.41
same,glycan array binding signal (z-score),[12],-0.034
same,glycan array binding signal (z-score),[13],-0.162
same,glycan array binding signal (z-score),[14],-0.142
same,glycan array binding signal (z-score),[15],-0.308
same,glycan array binding signal (z-score),[16],-0.297
same,glycan array binding signal (z-score),[17],4.4
same,glycan array binding signal (z-score),[18],-0.343
same,glycan array binding signal (z-score),[19],-0.229
same,glycan array binding signal (z-score),[20],-0.219
same,glycan array binding signal (z-score),[21],-0.264
same,glycan array binding signal (z-score),[22],0.29
same,glycan array binding signal (z-score),[23],-0.194
same,glycan array binding signal (z-score),[24],0.882
same,glycan array binding signal (z-score),[25],9.37
same,glycan array binding signal (z-score),[26],-0.115
same,glycan array binding signal (z-score),[27],-0.035
same,glycan array binding signal (z-score),Fuc(a1-3)GlcNAc,0.091
same,glycan array binding signal (z-score),[28],-0.08
same,glycan array binding signal (z-score),[29],0.103
same,glycan array binding signal (z-score),[30],-0.138
same,glycan array binding signal (z-score),[31],2.1
same,glycan array binding signal (z-score),[32],-0.546
same,glycan array binding signal (z-score),[33],-0.129
same,glycan array binding signal (z-score),[34],3.22
same,glycan array binding signal (z-score),[35],-0.14
same,glycan array binding signal (z-score),[36],0.185
